Experimental findings from publication PMC9911399, “Two distinct binding modes provide the RNA-binding protein RbFox with extraordinary sequence specificity” are described below.

Numbering of substitutions follows the chain as printed; changes in the protein carry UniProt numbers. The list shows a part of the results.

The chains are these.
T1: RBFOX1 RRM RbFoxmut (Fox-RRM*) (Homo sapiens, UniProt Q9NWB1 109-208, R118D;E147R;N151S;E152T)
T1 sequence: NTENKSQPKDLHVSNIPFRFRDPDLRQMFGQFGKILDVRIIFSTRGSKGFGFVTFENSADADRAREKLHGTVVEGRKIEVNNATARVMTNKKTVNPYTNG

B1: AGGAUGG (DNA:RNA)
RNA: GGGAGACCGGAAUUCAGAUUGUCCAGGAUGGUUAAAUCCCGUCGUAGCCACCA
DNA 1: CAATCTGAATTCCGGTCTCCC
DNA 2: TGGTGGCTACGACGGGATT
B2: CAGUCAC (DNA:RNA)
RNA: B1 RNA with A25C, G26A, A28U, U29C, G30A, G31C
DNA 1: CAATCTGAATTCCGGTCTCCC
DNA 2: TGGTGGCTACGACGGGATT
B3: CUUGCUA (DNA:RNA)
RNA: GGGAGACCGGAAUUCAGAUUGUCCCUUGCUAUUAAAUCCCGUCGUAGCCACCA
DNA 1: CAATCTGAATTCCGGTCTCCC
DNA 2: TGGTGGCTACGACGGGATT
B4: UAAUACU (DNA:RNA)
RNA: GGGAGACCGGAAUUCAGAUUGUCCUAAUACUUUAAAUCCCGUCGUAGCCACCA
DNA 1: CAATCTGAATTCCGGTCTCCC
DNA 2: TGGTGGCTACGACGGGATT
B5: AUUAGAU (DNA:RNA)
RNA: B1 RNA with G26U, G27U, U29G, G30A, G31U
DNA 1: CAATCTGAATTCCGGTCTCCC
DNA 2: TGGTGGCTACGACGGGATT
B6: GACAACG (DNA:RNA)
RNA: B4 RNA with U25G, A27C, U28A, U31G
DNA 1: CAATCTGAATTCCGGTCTCCC
DNA 2: TGGTGGCTACGACGGGATT
B7: AAGCUCG (DNA:RNA)
RNA: B1 RNA with G26A, A28C, G30C
DNA 1: CAATCTGAATTCCGGTCTCCC
DNA 2: TGGTGGCTACGACGGGATT
B8: GCGAUAA (DNA:RNA)
RNA: B1 RNA with A25G, G26C, G30A, G31A
DNA 1: CAATCTGAATTCCGGTCTCCC
DNA 2: TGGTGGCTACGACGGGATT
B9: ACGAUGC (DNA:RNA)
RNA: B1 RNA with G26C, G31C
DNA 1: CAATCTGAATTCCGGTCTCCC
DNA 2: TGGTGGCTACGACGGGATT
B10: CGAUUAU (DNA:RNA)
RNA: B4 RNA with U25C, A26G, A29U, C30A
DNA 1: CAATCTGAATTCCGGTCTCCC
DNA 2: TGGTGGCTACGACGGGATT
B11: UCGAGAU (DNA:RNA)
RNA: B1 RNA with A25U, G26C, U29G, G30A, G31U
DNA 1: CAATCTGAATTCCGGTCTCCC
DNA 2: TGGTGGCTACGACGGGATT
B12: UAAGGGG (DNA:RNA)
RNA: B4 RNA with U28G, A29G, C30G, U31G
DNA 1: CAATCTGAATTCCGGTCTCCC
DNA 2: TGGTGGCTACGACGGGATT
B13: CGUGGUU (DNA:RNA)
RNA: B3 RNA with U26G, C29G, A31U
DNA 1: CAATCTGAATTCCGGTCTCCC
DNA 2: TGGTGGCTACGACGGGATT
B14: UGCGGCU (DNA:RNA)
RNA: B4 RNA with A26G, A27C, U28G, A29G
DNA 1: CAATCTGAATTCCGGTCTCCC
DNA 2: TGGTGGCTACGACGGGATT
B15: CACACCU (DNA:RNA)
RNA: B4 RNA with U25C, A27C, U28A, A29C
DNA 1: CAATCTGAATTCCGGTCTCCC
DNA 2: TGGTGGCTACGACGGGATT
B16: GCGUCGG (DNA:RNA)
RNA: B1 RNA with A25G, G26C, A28U, U29C
DNA 1: CAATCTGAATTCCGGTCTCCC
DNA 2: TGGTGGCTACGACGGGATT
B17: UAGAGGG (DNA:RNA)
RNA: B1 RNA with A25U, G26A, U29G
DNA 1: CAATCTGAATTCCGGTCTCCC
DNA 2: TGGTGGCTACGACGGGATT
B18: CACUUGC (DNA:RNA)
RNA: B1 RNA with A25C, G26A, G27C, A28U, G31C
DNA 1: CAATCTGAATTCCGGTCTCCC
DNA 2: TGGTGGCTACGACGGGATT
B19: CUUUGCC (DNA:RNA)
RNA: B3 RNA with G28U, C29G, U30C, A31C
DNA 1: CAATCTGAATTCCGGTCTCCC
DNA 2: TGGTGGCTACGACGGGATT
B20: GCCCAGU (DNA:RNA)
RNA: B4 RNA with U25G, A26C, A27C, U28C, C30G
DNA 1: CAATCTGAATTCCGGTCTCCC
DNA 2: TGGTGGCTACGACGGGATT
B21: CUCCAGA (DNA:RNA)
RNA: B3 RNA with U27C, G28C, C29A, U30G
DNA 1: CAATCTGAATTCCGGTCTCCC
DNA 2: TGGTGGCTACGACGGGATT
B22: CAGUUCU (DNA:RNA)
RNA: B4 RNA with U25C, A27G, A29U
DNA 1: CAATCTGAATTCCGGTCTCCC
DNA 2: TGGTGGCTACGACGGGATT
B23: GCACCAG (DNA:RNA)
RNA: B1 RNA with A25G, G26C, G27A, A28C, U29C, G30A
DNA 1: CAATCTGAATTCCGGTCTCCC
DNA 2: TGGTGGCTACGACGGGATT
B24: GCCGAUG (DNA:RNA)
RNA: B3 RNA with C25G, U26C, U27C, C29A, A31G
DNA 1: CAATCTGAATTCCGGTCTCCC
DNA 2: TGGTGGCTACGACGGGATT
B25: CUUUAAA (DNA:RNA)
RNA: B3 RNA with G28U, C29A, U30A
DNA 1: CAATCTGAATTCCGGTCTCCC
DNA 2: TGGTGGCTACGACGGGATT
B26: AGGUUCU (DNA:RNA)
RNA: B1 RNA with A28U, G30C, G31U
DNA 1: CAATCTGAATTCCGGTCTCCC
DNA 2: TGGTGGCTACGACGGGATT
B27: CCCAGAA (DNA:RNA)
RNA: B3 RNA with U26C, U27C, G28A, C29G, U30A
DNA 1: CAATCTGAATTCCGGTCTCCC
DNA 2: TGGTGGCTACGACGGGATT
B28: ACCGUUU (DNA:RNA)
RNA: B1 RNA with G26C, G27C, A28G, G30U, G31U
DNA 1: CAATCTGAATTCCGGTCTCCC
DNA 2: TGGTGGCTACGACGGGATT
B29: CGAUGAU (DNA:RNA)
RNA: B4 RNA with U25C, A26G, A29G, C30A
DNA 1: CAATCTGAATTCCGGTCTCCC
DNA 2: TGGTGGCTACGACGGGATT
B30: GGUAGUA (DNA:RNA)
RNA: B3 RNA with C25G, U26G, G28A, C29G
DNA 1: CAATCTGAATTCCGGTCTCCC
DNA 2: TGGTGGCTACGACGGGATT
B31: UAAGCAU (DNA:RNA)
RNA: B4 RNA with U28G, A29C, C30A
DNA 1: CAATCTGAATTCCGGTCTCCC
DNA 2: TGGTGGCTACGACGGGATT

The target in the assay is T1, RBFOX1 RRM RbFoxmut (Fox-RRM*). The assay is described as follows: EMSA; HiTS-Eq, 1 nM pool, 10 min; buffer printed only for the single-RNA assays: 10 mM Tris pH 7.5, 150 mM NaCl, 3.4 mM EDTA, 0.001% NP-40, 30 C. Conditions: tags: His6 N-terminal (pET28a); label: 5' 32P. The essentials:
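A pool of RNA with 7 randomized nucleotides, 5′-radiolabelled and with DNA-annealed flanks, was equilibrated at 1 nM for 10 min in 50 µL with purified RbFox RRM, wild type or mutant, across increasing protein concentrations. Free RNA was separated by 8% native PAGE, excised, reverse-transcribed, barcoded by PCR and sequenced. Relative association constants were obtained from read-count changes of each RNA species versus the control reaction and normalised to the cognate motif.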
Consider B1, for which the binding signal was 0.177 KA relative to UGCAUGU. The figure for B2 is 0.0858 KA relative to UGCAUGU; for B3 it is 0.137 KA relative to UGCAUGU; for B4 it is 0.103 KA relative to UGCAUGU. On to B5, for which the binding signal is 0.0862 KA relative to UGCAUGU.

For the molecule B6, the binding signal is 0.0294 KA relative to UGCAUGU. The figure for B7 is 0.141 KA relative to UGCAUGU.

For the molecule B8, the binding signal is 0.0907 KA relative to UGCAUGU. With B9 the figure was 0.121 KA relative to UGCAUGU; with B10, 0.128 KA relative to UGCAUGU. With B11 the figure was 0.0742 KA relative to UGCAUGU; with B12, 0.05 KA relative to UGCAUGU; with B13, 0.14 KA relative to UGCAUGU.

For the molecule B14, the binding signal is 0.124 KA relative to UGCAUGU. The figure for B15 is 0.0833 KA relative to UGCAUGU. On to B16, for which the binding signal was 0.0963 KA relative to UGCAUGU. The figure for B17 is 0.103 KA relative to UGCAUGU.

In the case of B18, the binding signal was 0.128 KA relative to UGCAUGU. With B19 the figure was 0.177 KA relative to UGCAUGU.

For the molecule B20, the binding signal is 0.102 KA relative to UGCAUGU. With B21 the figure was 0.0911 KA relative to UGCAUGU; with B22, 0.0871 KA relative to UGCAUGU; with B23, 0.149 KA relative to UGCAUGU.

Turning to B24, the binding signal was 0.109 KA relative to UGCAUGU. On to B25, for which the binding signal was 0.123 KA relative to UGCAUGU. The figure for B26 is 0.0939 KA relative to UGCAUGU; for B27 it is 0.0718 KA relative to UGCAUGU. The figure for B28 is 0.108 KA relative to UGCAUGU; for B29 it is 0.0689 KA relative to UGCAUGU. As for B30, the binding signal is 0.128 KA relative to UGCAUGU. The figure for B31 is 0.0933 KA relative to UGCAUGU.
